Data from PubChem BioAssay (NCATS).
The shares of active, inactive and inconclusive entries below differ from those in the screen. For part of these data: Where the call is inconclusive, the potency comes from a doubtful curve fit. For part of these data: “Side channel” marks fits to a control or component signal instead of the main read-out. Calls of active or inactive are those of the source. Unless noted, calls follow the shape of the dose curve; as a rule, active = well fitted curve in the direction sought with a large enough effect; inconclusive = small, poorly fitted or top-dose-only effect, or another doubt; inactive = no such curve, though single readings can be large; an effect the other way counts as inactive or inconclusive.

Assays:
[1] = biological target: 3',5'-cyclic-AMP phosphodiesterase 4B (Homo sapiens) (UniProt Q07343); assay: qHTS Assay for Inhibitors of PDE-IV (AID 607; active = well fitted activation curve with a large enough effect in the main read-out, with a control signal flat, not every such curve was filed as active; inconclusive = small, poorly fitted or top-dose-only effect, or effect the other way, or a change in a side signal; also: potency is read from the fitted curve at half-maximal effect; as to activation (PDE inhibition): % of control where 0% means no effect); settings: HEK293 ACTOne CNG channel cells, membrane potential fluorescence; activation (PDE inhibition): at 22.9 µM (top of the series)
UniProt Q07343, sequence (Q07343 whole entry, looked up): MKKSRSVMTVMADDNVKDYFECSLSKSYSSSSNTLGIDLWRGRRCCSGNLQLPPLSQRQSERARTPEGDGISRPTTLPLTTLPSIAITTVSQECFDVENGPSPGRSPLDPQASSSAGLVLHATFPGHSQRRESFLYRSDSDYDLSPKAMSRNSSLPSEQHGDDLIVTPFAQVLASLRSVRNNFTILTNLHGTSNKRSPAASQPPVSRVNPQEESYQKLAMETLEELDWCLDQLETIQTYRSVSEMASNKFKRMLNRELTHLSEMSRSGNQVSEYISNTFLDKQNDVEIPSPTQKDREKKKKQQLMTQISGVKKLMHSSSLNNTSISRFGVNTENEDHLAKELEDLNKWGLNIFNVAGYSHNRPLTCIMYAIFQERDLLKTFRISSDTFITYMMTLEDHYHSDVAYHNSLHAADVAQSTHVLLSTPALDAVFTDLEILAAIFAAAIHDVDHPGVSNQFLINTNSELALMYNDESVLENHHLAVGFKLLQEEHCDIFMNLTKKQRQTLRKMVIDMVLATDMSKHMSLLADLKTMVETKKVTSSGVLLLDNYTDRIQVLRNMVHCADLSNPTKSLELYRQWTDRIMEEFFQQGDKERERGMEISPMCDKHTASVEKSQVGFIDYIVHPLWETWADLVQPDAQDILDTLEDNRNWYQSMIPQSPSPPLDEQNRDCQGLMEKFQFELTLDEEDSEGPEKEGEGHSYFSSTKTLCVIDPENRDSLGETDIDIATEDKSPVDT
In short: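 HEK293 ACTOne cells with CNG channel (1000/well), endogenous PDE4; membrane potential dye, compounds up to 22.9 uM final. Fluorescence Ex 535/Em 590; RO 20-1724 (100 uM final) as reference.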

[2] = biological target: Dual specificity protein kinase CLK4 (Homo sapiens) (UniProt Q9HAZ1); assay: qHTS Assay for Inhibitors of CDC-like Kinase 4 (ADP-Glo Assay) (AID 1771); also: nearly all actives have a fitted effect of over 70% in size; also: potency is read from the fitted curve at half-maximal effect; as to activity change, negative = inhibition: % is scaled to controls: 0 for no effect and ±100 for the full control effect
UniProt Q9HAZ1, sequence (Q9HAZ1 whole entry, looked up): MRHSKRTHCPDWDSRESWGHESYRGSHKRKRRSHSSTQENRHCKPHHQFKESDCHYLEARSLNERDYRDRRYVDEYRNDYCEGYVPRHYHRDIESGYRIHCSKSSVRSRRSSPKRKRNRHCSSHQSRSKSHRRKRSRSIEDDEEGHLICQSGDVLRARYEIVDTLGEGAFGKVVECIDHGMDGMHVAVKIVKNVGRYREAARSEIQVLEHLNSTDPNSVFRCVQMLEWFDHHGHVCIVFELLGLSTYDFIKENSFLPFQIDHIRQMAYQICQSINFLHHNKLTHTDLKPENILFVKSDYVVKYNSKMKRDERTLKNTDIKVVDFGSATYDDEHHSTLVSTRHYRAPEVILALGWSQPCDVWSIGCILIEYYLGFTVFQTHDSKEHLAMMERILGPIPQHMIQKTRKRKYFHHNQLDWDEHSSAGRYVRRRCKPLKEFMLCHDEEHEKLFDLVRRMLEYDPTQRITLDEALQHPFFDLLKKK
In short: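 25 nM Clk4 with 100 uM RS repeat peptide and 1 uM ATP (final) in buffer with 2 mM MgCl2, 0.5 mM EGTA, 2.5 mM DTT, 0.01% Triton X-100; 1 h at room temperature; ADP-Glo luminescence for ADP formed.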

[3] = NFAT Signaling Pathway (AID 444; active = well fitted curve in either direction with a large enough effect, not every such curve was filed as active; inconclusive = small, poorly fitted or top-dose-only effect, or another doubt;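 also: carbachol stimulus at about its EC50 of 1 µM final; % is scaled to controls: 0 for no effect and ±100 for the full control effect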); settings: Jurkat NFAT-bla M1, carbachol, beta-lactamase ratio, 5 h; at 17.2 µM (top of the series) unless noted
In short: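 Read-out: CCF4 FRET ratio (460 nm/530 nm) after 1 h RT dye loading, used for %activity and AC50 from titration series. Cells: Jurkat NFAT-β-lactamase/M1 line, treated with compound plus 1 uM carbachol for 5 h, 37 °C.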

[4] = qHTS Assay for Identification of Small Molecule Agonists for Hypoxia Response Element Signaling Pathway (AID 914; active = well fitted activation curve with a large enough effect in the signal ratio, with a control signal flat, not every such curve was filed as active; inconclusive = small, poorly fitted or top-dose-only effect, or effect the other way, or a change in a side signal; the % refers to the signal ratio; also: potency is read from the fitted curve at half-maximal effect; as to activation: top concentration of the series differs between compounds; % of control where 0% means no effect); settings: ME-180 HRE-bla reporter, beta-lactamase ratio, CoCl2, 17 h; activation: hits give high values
In short: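 Compounds in a titration series were added to ME-180 reporter cells alongside an EC50 level of CoCl2. After 17 hours, beta-lactamase activity was read as the 460nm/530nm emission ratio of CCF4, giving AC50 values.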

[5] = biological target: Cytochrome P450 2D6 (Homo sapiens) (UniProt P10635); assay: qHTS Assay for Inhibitors and Substrates of Cytochrome P450 2D6 (AID 891); settings: recombinant CYP2D6, luciferin-ME EGE luminescence; activity change, negative = inhibition: at 57.1 µM (top of the series);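 also: luciferin methyl ether substrate demethylated by CYP2D6 with NADPH regeneration; potency is read from the fitted curve at half-maximal effect; nearly all actives have a fitted effect of over 60% in size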
UniProt P10635, sequence (P10635 whole entry, looked up): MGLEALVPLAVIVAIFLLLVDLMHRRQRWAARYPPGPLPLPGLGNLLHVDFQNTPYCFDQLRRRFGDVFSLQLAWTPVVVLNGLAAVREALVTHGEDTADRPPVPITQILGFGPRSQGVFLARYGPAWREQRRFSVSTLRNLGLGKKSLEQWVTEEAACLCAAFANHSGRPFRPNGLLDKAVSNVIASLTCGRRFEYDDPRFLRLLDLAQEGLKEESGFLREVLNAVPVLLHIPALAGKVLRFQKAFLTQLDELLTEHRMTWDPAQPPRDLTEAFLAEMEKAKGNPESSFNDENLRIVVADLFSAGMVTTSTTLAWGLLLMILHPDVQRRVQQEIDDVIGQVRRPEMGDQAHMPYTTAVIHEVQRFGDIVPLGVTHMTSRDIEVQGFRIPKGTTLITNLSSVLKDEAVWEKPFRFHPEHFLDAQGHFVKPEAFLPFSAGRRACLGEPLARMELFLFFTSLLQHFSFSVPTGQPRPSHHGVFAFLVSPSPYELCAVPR
In short: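 Human CYP2D6 (5 nM) with 30 uM Luciferin-ME EGE (at Km) in 100 mM KPO4, compound preincubated 10 min, then NADPH regeneration system for 60 min at room temperature. Luciferin read by luminescence; normalized to 1.43 uM quinidine.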

[6] = biological target: Ubiquitin carboxyl-terminal hydrolase 1 (Homo sapiens) (UniProt O94782); assay: Inhibitors of USP1/UAF1: Pilot qHTS (AID 504865);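 also: rhodamine fluorescence freed from ubiquitin-rhodamine substrate followed over time; potency is read from the fitted curve at half-maximal effect; nearly all actives have a fitted effect of over 35% in size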
UniProt O94782, sequence (O94782 whole entry, looked up): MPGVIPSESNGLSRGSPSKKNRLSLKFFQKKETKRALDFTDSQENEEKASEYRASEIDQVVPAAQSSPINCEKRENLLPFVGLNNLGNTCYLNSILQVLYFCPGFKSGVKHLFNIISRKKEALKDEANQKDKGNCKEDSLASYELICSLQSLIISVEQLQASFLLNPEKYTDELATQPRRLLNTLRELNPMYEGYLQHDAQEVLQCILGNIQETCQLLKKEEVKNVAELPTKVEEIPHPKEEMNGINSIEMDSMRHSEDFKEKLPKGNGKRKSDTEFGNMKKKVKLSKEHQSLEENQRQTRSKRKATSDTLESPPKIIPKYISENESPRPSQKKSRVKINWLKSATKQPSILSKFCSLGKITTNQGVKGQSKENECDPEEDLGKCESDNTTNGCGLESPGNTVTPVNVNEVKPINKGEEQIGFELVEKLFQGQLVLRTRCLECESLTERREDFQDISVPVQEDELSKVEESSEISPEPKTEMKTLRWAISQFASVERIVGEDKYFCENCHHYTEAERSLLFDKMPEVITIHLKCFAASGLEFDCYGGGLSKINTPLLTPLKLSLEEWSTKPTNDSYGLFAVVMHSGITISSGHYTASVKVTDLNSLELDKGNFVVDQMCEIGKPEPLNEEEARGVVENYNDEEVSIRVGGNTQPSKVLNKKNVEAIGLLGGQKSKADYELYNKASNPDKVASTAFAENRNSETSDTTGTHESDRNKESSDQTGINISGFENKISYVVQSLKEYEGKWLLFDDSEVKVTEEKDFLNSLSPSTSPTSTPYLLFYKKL
In short: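 USP1/UAF1 complex at 1 nM preincubated 15 min at room temperature with compound, then Ub-Rho substrate added at 150 nM final. Fluorescence (480/540 nm) read kinetically in 50 mM HEPES pH 7.8, 0.5 mM EDTA, 1 mM TCEP, 0.1 mg/ml BSA, 0.01% Tween-20.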

[7] = biological target: Glucocorticoid receptor (Homo sapiens) (UniProt P04150); assay: GR-GFP Redistribution (AID 450;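 active = compounds whose dose series gives a full or clear partial fitted curve of increased nuclear translocation; inconclusive = weak partial curve or effect only at the top dose; inactive = no dose-dependent translocation response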; also: potency is read from the fitted curve at half-maximal effect); settings: U2OS GR-GFP nuclear translocation, laser cytometry, 2 h
UniProt P04150, sequence (P04150 whole entry, looked up, the tested form may be a part): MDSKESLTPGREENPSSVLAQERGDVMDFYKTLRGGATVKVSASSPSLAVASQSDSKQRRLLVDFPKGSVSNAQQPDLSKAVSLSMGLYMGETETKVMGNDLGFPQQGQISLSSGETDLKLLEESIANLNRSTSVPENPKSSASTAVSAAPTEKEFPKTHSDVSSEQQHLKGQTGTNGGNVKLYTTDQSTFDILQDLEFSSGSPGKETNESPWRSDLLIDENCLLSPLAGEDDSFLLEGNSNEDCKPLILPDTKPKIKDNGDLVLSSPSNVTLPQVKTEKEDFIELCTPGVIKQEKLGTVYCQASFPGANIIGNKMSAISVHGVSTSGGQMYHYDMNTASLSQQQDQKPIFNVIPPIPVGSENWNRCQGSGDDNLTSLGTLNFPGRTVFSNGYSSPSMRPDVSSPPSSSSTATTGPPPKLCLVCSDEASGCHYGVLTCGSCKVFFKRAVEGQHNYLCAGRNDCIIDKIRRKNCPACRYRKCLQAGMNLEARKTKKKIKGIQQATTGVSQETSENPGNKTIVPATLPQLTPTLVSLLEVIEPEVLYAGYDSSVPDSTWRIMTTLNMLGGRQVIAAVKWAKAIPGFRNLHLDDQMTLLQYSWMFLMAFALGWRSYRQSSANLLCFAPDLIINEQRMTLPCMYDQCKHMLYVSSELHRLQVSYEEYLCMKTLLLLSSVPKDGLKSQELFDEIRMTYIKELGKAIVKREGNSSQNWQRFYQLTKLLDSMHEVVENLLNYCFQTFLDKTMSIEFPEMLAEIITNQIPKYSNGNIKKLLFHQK

[8] = AP1 Signaling Pathway (AID 357; active = well fitted curve in either direction with a large enough effect, not every such curve was filed as active; inconclusive = small, poorly fitted or top-dose-only effect, or another doubt;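 also: ME-180 reporter cells stimulated with EGF at its EC50 level; top concentration of the series differs between compounds; % is scaled to controls: 0 for no effect and ±100 for the full control effect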); settings: ME-180 AP-1-bla reporter, EGF-induced, beta-lactamase ratio, 5 h; at 17.2 µM (top of the series) unless noted
In short: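 Modulation of EGF-driven AP-1 transcription was assessed with a beta-lactamase reporter in ME-180 cells. Compound and EC50 EGF were co-incubated 5 hours at 37 °C before 2.5-hour CCF4 loading at room temperature and dual-emission reading.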

[9] = biological target: Glucocorticoid receptor (Homo sapiens) (UniProt P04150); assay: GR-EFC Redistribution (AID 451; calls by dose curve; also: potency is read from the fitted curve at half-maximal effect); settings: CHO-K1 GR-EFC translocation, beta-gal luminescence, 2 h
In short: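 Translocation of GR-ED fusion to nuclear EA restores b-gal, read by luminescence after 1 h room-temperature detection. Engineered CHO-K1 biosensor cells, 1,000/well, exposed 2 h at 37 C to titrations up to 46 uM final.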

[10] = biological target: Cytochrome P450 2C9 (Homo sapiens) (UniProt P11712); assay: qHTS Assay for Inhibitors and Substrates of Cytochrome P450 2C9 (AID 883); settings: recombinant CYP2C9, luciferin-H luminescence, 60 min; activity change, negative = inhibition: at 57.1 µM (top of the series); also: potency is read from the fitted curve at half-maximal effect; nearly all actives have a fitted effect of over 60% in size
UniProt P11712, sequence (P11712 whole entry, looked up): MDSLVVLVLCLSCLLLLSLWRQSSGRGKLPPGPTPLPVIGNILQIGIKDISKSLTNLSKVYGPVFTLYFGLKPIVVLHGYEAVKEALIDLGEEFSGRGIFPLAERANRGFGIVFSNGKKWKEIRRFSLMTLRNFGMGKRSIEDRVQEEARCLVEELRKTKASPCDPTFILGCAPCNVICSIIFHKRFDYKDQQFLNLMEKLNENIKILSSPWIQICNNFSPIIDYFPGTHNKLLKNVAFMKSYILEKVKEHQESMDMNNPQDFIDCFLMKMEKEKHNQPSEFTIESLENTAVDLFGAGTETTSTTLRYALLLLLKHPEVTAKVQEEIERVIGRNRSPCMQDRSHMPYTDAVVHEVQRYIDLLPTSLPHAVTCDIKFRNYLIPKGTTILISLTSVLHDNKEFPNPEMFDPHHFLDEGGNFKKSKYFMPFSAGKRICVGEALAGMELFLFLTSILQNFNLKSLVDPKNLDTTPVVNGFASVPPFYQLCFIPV
In short: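 Turnover of Luciferin-H (100uM, KM) by 10nM human CYP2C9 was measured over 60 min at 37C with NADPH regeneration; inhibitors and some substrates reduce luminescence. Data normalized to sulphaphenazole 57uM.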

[11] = Stat Signaling Pathway (AID 446; active = well fitted curve in either direction with a large enough effect, not every such curve was filed as active; inconclusive = small, poorly fitted or top-dose-only effect, or another doubt;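 also: ME-180 cervical cancer cells given 40 pM IL-6 alongside compound; SIE-controlled beta-lactamase reporter measured as 460/530 nm FRET emission ratio; top concentration of the series differs between compounds; % is scaled to controls: 0 for no effect and ±100 for the full control effect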); settings: ME-180 SIE beta-lactamase reporter, IL-6 stimulated, 5 h; at 7.69 µM (top of the series) unless noted
In short: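 ME-180 cells carrying a SIE-driven beta-lactamase reporter are stimulated with 40 pM IL-6 for 5 h at 37C in the presence of compound. The 460/530 nm FRET substrate ratio is read after 2.5 h at RT. Data are normalised to 300 pM IL-6 and to 125 nM JAK inhibitor controls.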

[12] = biological target: Mitogen-activated protein kinase 10 (Mus musculus) (UniProt Q61831); assay: JNK3 AlphaScreen Assay (AID 530; active = well fitted curve in either direction with a large enough effect, not every such curve was filed as active; inconclusive = small, poorly fitted or top-dose-only effect, or another doubt;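 also: kinase came from lysate of stimulated human HepG2 cells; signal reports phosphorylation of biotinylated GST-cJun 1-79 at Ser73 with 10 µM ATP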; also: potency is read from the fitted curve at half-maximal effect); settings: JNK3 lysate, c-Jun phosphorylation; activity change, negative = inhibition: at 57.1 µM (top of the series)
In short: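 Compound titrations were preincubated 15 minutes at room temperature with substrate, antibody and pre-activated JNK3-containing HepG2 lysate. Reactions were started with 10 uM ATP and stopped with EDTA-containing bead buffer for AlphaScreen detection.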

[13] = biological target: Cytochrome P450 3A4 (Homo sapiens) (UniProt P08684); assay: qHTS Assay for Inhibitors and Substrates of Cytochrome P450 3A4 (AID 884); also: potency is read from the fitted curve at half-maximal effect; nearly all actives have a fitted effect of over 50% in size
UniProt P08684, sequence (P08684 whole entry, looked up): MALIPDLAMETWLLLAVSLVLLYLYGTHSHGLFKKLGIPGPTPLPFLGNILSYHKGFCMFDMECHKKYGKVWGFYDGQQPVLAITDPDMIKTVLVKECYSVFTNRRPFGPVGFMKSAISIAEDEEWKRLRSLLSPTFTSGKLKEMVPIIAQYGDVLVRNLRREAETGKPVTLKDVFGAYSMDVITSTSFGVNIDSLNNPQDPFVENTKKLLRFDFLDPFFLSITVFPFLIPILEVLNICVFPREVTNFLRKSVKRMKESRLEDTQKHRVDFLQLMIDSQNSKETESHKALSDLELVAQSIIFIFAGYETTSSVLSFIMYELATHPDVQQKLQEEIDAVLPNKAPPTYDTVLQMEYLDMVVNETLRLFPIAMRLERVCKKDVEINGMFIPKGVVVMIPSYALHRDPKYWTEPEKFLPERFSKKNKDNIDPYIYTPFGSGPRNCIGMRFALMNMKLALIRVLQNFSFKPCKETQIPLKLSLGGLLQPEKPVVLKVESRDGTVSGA
In short: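 20 nM human CYP3A4 with 25 uM Luciferin-PPXE (at KM) in 200 mM KPO4, preincubated 10 min with compound; NADPH regeneration started a 60 min RT reaction. Luciferin detected by luminescence, normalized to 57 uM ketoconazole as full inhibition.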

[14] = biological target: Nuclear receptor subfamily 1 group I member 3 (Homo sapiens) (UniProt Q14994); assay: Primary qHTS for agonist of constitutive androstane receptor (CAR) against the NCATS DSHEA and TCM libraries (AID 1794839); also: potency is read from the fitted curve at half-maximal effect
In short: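 HepG2-CYP2B6-hCAR cells, 2,500/well, attached 5 h, then dosed with 0.75 µM PK11195 (final) for 24 h at 37 °C. Luciferase luminescence read (ONE-Glo); CellTiter-Fluor viability (Ex/Em 405/540 nm) in same wells; CITCO positive control.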

[15] = biological target: Cytochrome P450 2D6 (Homo sapiens) (UniProt P10635); assay: qHTS for inhibitors of CYP2D6 against the NCATS DSHEA and TCM libraries (AID 1919972); also: potency is read from the fitted curve at half-maximal effect
In short: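 Luminescent P450-Glo read-out of CYP2D6 turnover of a luciferin substrate after NADPH-driven reaction of 30-45 min at room temperature. Compounds were first preincubated 15 min with enzyme at titrated concentrations; quinidine was the intraplate control.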

[16] = biological target: Cytochrome P450 1A2 (Homo sapiens) (UniProt P05177); assay: qHTS for inhibitors of CYPIA2 against the NCATS DSHEA and TCM libraries (AID 1919976); also: potency is read from the fitted curve at half-maximal effect
UniProt P05177, sequence (P05177 whole entry, looked up): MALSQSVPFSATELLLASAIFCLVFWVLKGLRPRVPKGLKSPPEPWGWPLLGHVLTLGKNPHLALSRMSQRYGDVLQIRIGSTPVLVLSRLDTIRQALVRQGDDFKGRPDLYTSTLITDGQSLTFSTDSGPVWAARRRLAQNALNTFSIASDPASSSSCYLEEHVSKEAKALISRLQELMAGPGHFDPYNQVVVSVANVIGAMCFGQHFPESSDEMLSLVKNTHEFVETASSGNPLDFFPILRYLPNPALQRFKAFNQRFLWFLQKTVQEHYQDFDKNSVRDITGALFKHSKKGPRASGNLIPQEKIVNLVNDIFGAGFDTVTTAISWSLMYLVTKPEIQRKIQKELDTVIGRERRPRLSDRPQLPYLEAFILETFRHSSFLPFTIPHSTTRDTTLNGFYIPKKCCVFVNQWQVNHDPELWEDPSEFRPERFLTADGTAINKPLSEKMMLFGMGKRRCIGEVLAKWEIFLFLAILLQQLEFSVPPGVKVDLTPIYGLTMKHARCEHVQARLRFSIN
In short: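 Human CYP1A2 with pro-luciferin substrate (typically 100 mM KPO4), 15 min preincubation with compound, then 1x NADPH regeneration for 30-45 min at room temperature in the dark. Luciferin quantified by luciferase luminescence; furafylline intraplate control.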

[17] = biological target: Nuclear receptor subfamily 1 group I member 2 (Homo sapiens) (UniProt O75469); assay: Dual reporter qHTS for agonist of Pregnane X Receptor (hPXR) against the NCATS DSHEA and TCM libraries: Luminescence readout (AID 1920059); also: potency is read from the fitted curve at half-maximal effect
In short: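 Luminescent PXR reporter read (ONE-Glo) after a CellTiter-Fluor viability read, following 24 h, 37C treatment of HepG2 cells stably carrying hPXR-Luc.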
Tags tell the direction and shape of the fitted curve or compound fluorescence and quenching.

## Cc1nc2cnc(OCc3ccccc3)nc2n(C)c1=O
[1]
  Potency: inactive
[2]
  Potency: inactive

## Cc1ccccc1-c1nccc(NCCN2CCOCC2)n1
[3]
  activity change, negative = inhibition: inactive: -13.9% [at 7.69 µM]
[4]
  Potency: inconclusive: 2.51 µM [activator, partial curve]
[2]
  Potency: inconclusive: 35.5 µM [falling, single point]

## N#Cc1cccc(-c2nc(NCc3cccs3)c3ccccc3n2)c1
[1]
  Potency: inconclusive: 12.6 µM [activator, partial curve]
[5]
  Potency: inconclusive: 5.01 µM [inhibitor, full curve]
[2]
  Potency: inconclusive: 4.47 µM [falling, full curve, poor fit]
[6]
  Potency: inconclusive: 11.2 µM [inhibitor, partial curve, poor fit]

## COc1ccccc1-c1cncnc1N(C)Cc1ccco1
[3]
  activity change, negative = inhibition: inconclusive: -44.4% [inhibitor] [at 7.69 µM]
[4]
  activation: inactive: -12.2%
[2]
  Potency: inactive

## COc1ccccc1-c1cncnc1NCCNC(C)=O
[7]
  Potency: inconclusive: 37.2 µM [single point]
[2]
  Potency: inactive

## Cc1nc2cncnc2n(Cc2ccccc2)c1=O
[1]
  Potency: inconclusive: 7.94 µM [activator, partial curve, poor fit]
[2]
  Potency: inactive

## Cc1nc2cncnc2n(C2CC2)c1=O
[8]
  activity change, negative = inhibition: inconclusive: -34% [inhibitor] [at 7.69 µM]
[9]
  Potency: inactive: > 46 µM
[1]
  Potency: inactive
[10]
  Potency: inconclusive: 7.94 µM [inhibitor, partial curve]
[2]
  Potency: inactive

## N#Cc1cccc(-c2cncnc2NCc2cccnc2)c1
[3]
  activity change, negative = inhibition: inactive: -3.61% [at 7.69 µM]
[2]
  Potency: inconclusive: 28.2 µM [falling, single point]

## Cn1cc(-c2nc3cnc(N4CCNCC4)nc3n(-c3ccccc3)c2=O)c2ccccc21
[11]
  activity, negative = inhibition: inconclusive: 42.8% [activator]
[12]
  Potency: inconclusive: 31.6 µM [activator, single point]
[4]
  Potency: active: 3.98 µM
[2]
  Potency: inactive

## COc1ccc(-n2c(=O)c(-c3cccs3)nc3cnc(N(C)C)nc32)cc1
[1]
  Potency: inconclusive: 1.26 µM [activator, single point]
[2]
  Potency: inactive

## O=c1c(-c2cccs2)nc2cnc(N3CCOCC3)nc2n1-c1ccccc1
[8]
  activity change, negative = inhibition: inactive: 25.6% [at 7.69 µM]
[11]
  activity, negative = inhibition: inconclusive: 102% [activator]
[12]
  Potency: inconclusive: 2.51 µM [activator, partial curve]
[1]
  Potency: inconclusive: 7.94 µM [activator, partial curve]
[13]
  Potency: inconclusive: 7.94 µM [inhibitor, partial curve]
[4]
  Potency: inconclusive: 3.16 µM [fluorescent, side channel, single point]
[2]
  Potency: inconclusive: 28.2 µM [falling, single point]
[6]
  Potency: inconclusive: 11.2 µM [inhibitor, partial curve, poor fit]

## c1ccc2c(N3CCOCC3)nc(-c3ccoc3)nc2c1
[1]
  Potency: inconclusive: 1.58 µM [activator, partial curve]
[2]
  Potency: inconclusive: 35.5 µM [falling, single point]

## O=c1c(-c2ccccc2)nc2cnc(Oc3cccc(Cl)c3)nc2n1C1CC1
[3]
  activity change, negative = inhibition: inactive: 10.9% [at 7.69 µM]
[12]
  Potency: inactive
[10]
  Potency: active: 0.251 µM
[4]
  activation: inconclusive: -25.8%
[2]
  Potency: inactive

## N#Cc1cccc(-c2cncnc2NCc2ccccc2)c1
[8]
  activity change, negative = inhibition: inactive: 1.22% [at 7.69 µM]
[1]
  Potency: inactive
[2]
  Potency: inactive

## CCCCCCCCC/C=C/C(=O)CCc1ccc(O)c(OC)c1
[14]
  Potency: inconclusive: 11.2 µM [activator, partial curve, poor fit]
[15]
  Potency: inconclusive: 31.6 µM [inhibitor, partial curve]
[16]
  Potency: inconclusive: 12.6 µM [inhibitor, partial curve]
[17]
  Potency: inconclusive: 31.6 µM [activator, partial curve]
